In PubChem BioAssay AID1159614 (National Center for Advancing Translational Sciences (NCATS), 2016):
Hit rate of the full screen: of about 45,000 compounds, about 65 (0.1%) were called active. Calls come from the whole dose curve; as a rule, active = well fitted activation curve with a large enough effect; inconclusive = small, poorly fitted or top-dose-only effect; inactive = no such curve, though single readings can be large or run the other way. This is one part of the list.

target: Galactocerebrosidase (Homo sapiens) (UniProt P54803); experiment: A Novel Cell-Based Assay to Identify Small Molecules for B -Galactocerebrosidase; settings: 145M-Twi-hGALC-G270D cells (Twitcher mouse brain line with human GALC G270D), HMU-beta-Gal fluorescence, 48 h; series mostly up to 57.5 µM; activation: at the top concentration; note: 0% is about no effect; nearly all actives have a fitted effect of over 65% in size
Chain of UniProt P54803 (P54803 whole entry, looked up): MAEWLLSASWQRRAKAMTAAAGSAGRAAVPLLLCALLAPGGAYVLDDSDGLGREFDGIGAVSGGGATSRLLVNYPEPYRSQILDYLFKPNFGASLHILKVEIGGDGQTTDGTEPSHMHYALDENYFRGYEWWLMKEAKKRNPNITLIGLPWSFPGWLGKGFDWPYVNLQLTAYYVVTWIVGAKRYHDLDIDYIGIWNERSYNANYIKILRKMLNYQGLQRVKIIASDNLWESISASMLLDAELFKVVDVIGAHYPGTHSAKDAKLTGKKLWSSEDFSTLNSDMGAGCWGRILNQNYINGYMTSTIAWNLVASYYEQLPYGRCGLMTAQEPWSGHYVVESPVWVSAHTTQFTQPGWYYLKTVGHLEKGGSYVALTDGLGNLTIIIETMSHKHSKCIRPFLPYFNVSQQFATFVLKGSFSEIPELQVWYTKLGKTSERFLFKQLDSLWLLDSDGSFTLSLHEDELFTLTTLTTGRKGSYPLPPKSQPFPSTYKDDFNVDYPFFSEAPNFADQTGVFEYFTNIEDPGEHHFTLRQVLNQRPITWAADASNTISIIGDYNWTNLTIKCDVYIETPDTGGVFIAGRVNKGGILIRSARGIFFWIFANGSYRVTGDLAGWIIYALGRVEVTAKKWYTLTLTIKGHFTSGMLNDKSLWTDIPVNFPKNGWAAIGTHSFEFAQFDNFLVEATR
How it was run: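 Mutant human GALC (G270D), stably expressed in a Twitcher mouse brain cell line lacking endogenous GALC, is measured in live-treated cells via 6-hexadecanoylamino-4-methylumbelliferyl-β-galactoside hydrolysis (0.1 mM final, pH 5.2) with fluorescent detection.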

Compound	activation
Cc1ccccc1-c1nc2scc(CCNC(=O)c3ccco3)n2n1	inactive: -0.797%
COc1cccc(NC(=O)C2CCC(CNS(=O)(=O)c3ccc4c(c3)CCCC(=O)N4)CC2)c1 (configuration not stated)	inactive: -12.1%
CCn1cc(CNC(=O)c2cc(-c3ccc(C)cc3)nc3ccc(Br)cc23)c(C)n1	inactive: 7.41%
COc1cccc(NC(=O)C2CCN(c3ccc(Sc4ccc(C)cc4)nn3)CC2)c1	inactive: 4.29%
O=C(NCc1ccccc1)C(=O)Nc1c2c(nn1-c1ccc(F)cc1)CSC2	inactive: -14%
COc1ccc(NC(=O)CN2C(=O)COc3ccc(S(=O)(=O)N4CCOCC4)cc32)cc1	inactive: 27.8%
CCOc1ccc(CCNC(=O)C2CCCN(S(=O)(=O)N(C)c3ccc(F)cc3)C2)cc1 (configuration not stated)	inactive: -10.8%
CCS(=O)(=O)N1CCc2cc(C(=O)NCc3ccccc3OC)ccc21	inactive: -14.8%
Cc1cccc(OCCSc2nnc(-c3cccs3)o2)c1	inactive: 3.1%
Cc1ccc2nc(/C(C#N)=C/c3ccccc3F)[nH]c2c1	inactive: 5.14%
Cc1sc2ncn(CC(=O)N3CCN(c4ccccc4F)CC3)c(=O)c2c1S(=O)(=O)N1CCC(C)CC1	inactive: -13%
O=C(CSc1nc(=O)n(Cc2ccco2)c2c1CCC2)NCc1ccccc1	inactive: -1.37%
Clc1ccccc1OCCSc1nnc(-c2cccs2)o1	inactive: -5.86%
CCc1ccc2oc(-c3ccc(C)c(NC(=O)/C=C/c4ccco4)c3)nc2c1	inactive: -9.57%
COc1ccccc1CNC(=O)C1CCN(c2nc3ccc(C)cc3[nH]2)CC1	inactive: 3.34%
COc1ccc(Cl)cc1-n1cc(-c2ccccc2)nc1SCC(=O)Nc1ccc(C)cc1	inactive: -12.3%
O=C(NC1CCCC1)c1ccc2c(=O)n(Cc3ccccc3)c(SCc3ccccc3F)nc2c1	inactive: -8.84%
CCC(Cn1nnc2ccccc2c1=O)NC(=O)Nc1ccccc1OC (configuration not stated)	inactive: -15.7%
COc1ccc(-c2cc(-c3ccc(C)cc3)nc3c2COc2ccccc2-3)cc1	inactive: -12.3%
Cc1ccc(S(=O)(=O)c2nc(-c3ccc(F)cc3)oc2SCC(=O)NC2CCCCC2)cc1	inactive: -32.2%
CCOc1ccc(CCNC(=O)c2cc3c(-c4ccccc4F)nn(C)c3s2)cc1	inactive: -13.5%
CCc1ccc(CNC(=O)CCCn2ccc3cc(S(=O)(=O)N4CCCC4)ccc32)cc1	inactive: 17.6%
CCOC(=O)Cn1c(=N)n(Cc2ccc(C(C)(C)C)cc2)c2ccccc21	inactive: -1.63%
COc1ccc(C(=O)n2nc(N)c3cc4ccc(C)cc4nc32)cc1OC	inactive: -14.8%
COCCNC(=O)CCCn1c(SCC(=O)Nc2ccc(F)cc2)nc2c(sc3ccccc32)c1=O	inactive: -10.2%

Compound	activation
Cc1nc2cc(-c3ccccc3)nn2c(C)c1CCC(=O)N1CCN(c2ccc(F)cc2)CC1	inactive: -10.7%
COC(=O)c1cc2oc(C)cc2n1Cc1ccccc1Cl	inactive: -10.5%
Cc1ccc(CN2C(=O)C(O)(c3c(C)[nH]c4ccccc34)c3ccccc32)cc1 (configuration not stated)	inactive: -3.34%
COc1ccc(NC(=O)C2CCC(CNS(=O)(=O)c3cccc4nsnc34)CC2)cc1OC (configuration not stated)	inactive: -11.7%
Cc1cc2nc(-c3ccc(OCc4ccccc4C)cc3)cc(C(F)(F)F)n2n1	inactive: -8%
COc1cc(C2CC(=O)N(Cc3cccc(F)c3)c3ccccc3S2)cc(OC)c1OC (configuration not stated)	inactive: 12.3%
Cc1cc(C)cc(-n2ccnc2SCC(=O)Nc2cccc3ccccc23)c1	inactive: -28.1%
COc1ccccc1C1NC(=O)c2n[nH]c(-c3cccs3)c21 (configuration not stated)	inactive: -3.87%
CC1CCN(C(=O)c2c(NC(=O)c3ccccc3Cl)sc3c2CCC(C(C)(C)C)C3)CC1 (configuration not stated)	inactive: -17.1%
CCN(C(=O)Cn1c(C(=O)OC)cc2sc(Cl)cc21)c1cccc(C)c1	inactive: -7.06%
CCc1ccc(S(=O)(=O)c2cn(CC(=O)Nc3ccc(F)c(Cl)c3)c3ccccc3c2=O)cc1	inactive: -11.2%
COc1ccc([N+](=O)[O-])cc1NC(c1nnc(-c2ccccc2)o1)c1ccccc1F (configuration not stated)	inactive: -5.13%
CNC(=O)C1CCC(Cn2c(=O)c3sccc3n(Cc3cc(C)ccc3C)c2=O)CC1 (configuration not stated)	inactive: -5.71%
Cc1ccccc1-c1nc(CN2CCCC(C(=O)NCc3ccc(Cl)cc3)C2)c(C)o1 (configuration not stated)	inactive: -29.3%
COc1ccc(N2C(=O)NC(NS(=O)(=O)c3ccc(Cl)cc3)(C(F)(F)F)C2=O)cc1 (configuration not stated)	inactive: -10.6%
NC(CS)C(=O)O (configuration not stated)	inactive: -14.8%
Cc1ccc2nc(CN3CCN(C(=O)Nc4ccc(F)cc4)CC3)oc2c1	inactive: -4.13%
CSc1nc(NCCOC(C)=O)c(C#N)c(-c2ccc(C(C)(C)C)cc2)n1	inactive: -6.9%
COc1ccc(C2C(=O)N(C3CCCCC3)CC(=O)N2CCc2ccc(C)cc2)cc1OC (configuration not stated)	inactive: -3.41%
CCOC(=O)c1c(NC(=O)c2cc(-c3ccccc3OC)on2)sc(C)c1C	inactive: -2.66%
CCc1ccccc1NC(=O)Cn1nc2c3cc(F)ccc3n(Cc3cccc(C)c3)cc-2c1=O	inactive: 2.2%
COc1ccc(NC(=O)CCc2c(C)nc3c(c2C)c(=O)n(C)c(=O)n3C)c(OC)c1	inactive: 12.1%
O=C(COc1ccccc1F)Nc1ccc2nc(SCC(=O)N3CCc4ccccc43)sc2c1	inactive: -21.9%
COc1ccc(-c2nc3nc(C)cc(C)n3c2Nc2c(C)cccc2C)cc1	inactive: -19.7%
COc1ccccc1CNC(=O)C1(c2cccs2)CCOCC1	inactive: -15.6%

Compound	activation
CCc1ccc2oc(C(=O)NCC(c3ccc(OC)cc3)N3CCCCC3)c(C)c2c1 (configuration not stated)	inactive: -25.6%
CCOc1ccc(-c2cn3c(n2)sc2cc(C(=O)NCCCN4CCCCCC4)ccc23)cc1	inactive: -14%
CC1=C(C(=O)Nc2cccnc2)C(c2ccc(F)cc2)n2nc(-c3cccc(C)c3)nc2N1 (configuration not stated)	inactive: -8.35%
Cc1cc(C)c2nc(N(Cc3cccnc3)C(=O)CCS(=O)(=O)c3ccccc3)sc2c1	inactive: -11.3%
Cc1cc(NC(=O)C2CCN(S(=O)(=O)c3c(C)noc3C)CC2)ccc1Br	inactive: -11.1%
Cc1cccc(-n2ccnc2SCC(=O)Nc2cccc3ccccc23)c1	inactive: -41.7%
CCc1ccc(OCC(=O)Nc2ccc3c(c2)c2ccccc2n3CC)cc1	inactive: -8.51%
N#Cc1c[nH]n2c(NC3CCCCC3)c(-c3ccc(F)cc3)nc12	inactive: -12.7%
Oc1ccccc1-c1nc(-c2cccs2)c(-c2cccs2)[nH]1	inactive: -13.4%
O=C(COc1ccccc1Cl)Nc1ccc(OCc2cc(=O)n3ccsc3n2)cc1	inactive: -6.87%
Cc1cc(C)cc(OCCSc2nc3ccc(NC(=O)c4ccc5c(c4)OCO5)cc3s2)c1	inactive: 16.5%
CCc1ccc2[nH]cc(S(=O)(=O)c3ccc(C(C)C)cc3)c(=O)c2c1	inactive: -13.3%
CCOC(=O)C1CCCN(S(=O)(=O)c2cc(-c3cc(C)no3)ccc2OC)C1 (configuration not stated)	inactive: -20.5%
CC(C)CC(=O)Nc1ccc2nc(SCC(=O)N3CCc4ccccc43)sc2c1	inactive: -3.79%
CCOc1ccccc1CNC(=O)c1sc2ncccc2c1-n1cccc1	inactive: -18.7%
COc1ccccc1NC(=O)CSc1ncc2c(n1)-c1ccccc1N(Cc1ccccc1C)S2(=O)=O	inactive: 1.56%
Cc1c(N)cccc1C(F)(F)F	inactive: -15.4%
Cc1ccc(CN(C(=O)c2ccc(C(C)(C)C)cc2)c2ccccn2)o1	inactive: -34.8%
CCn1ccc2cc(S(=O)(=O)N3CCCN(C(=O)Nc4ccccc4F)CC3)ccc21	inactive: -3.63%
O=C(COC(=O)c1cc(-c2cccs2)nc2ccccc12)c1ccc(F)cc1	inactive: -14.1%
O=C(CSc1nnc(-c2ccc3c(c2)OCO3)o1)Oc1ccccc1	inactive: -8.57%
COc1cccc(Cn2c(SCC(=O)N3CCN(c4ccc(F)cc4)CC3)nc3ccccc32)c1	inactive: -6.69%
CCOc1cc(C2c3c(-c4cc(C)ccc4O)n[nH]c3C(=O)N2CCCOC(C)C)ccc1O (configuration not stated)	inactive: -15.2%
Cc1ccc(Cn2cc(S(=O)(=O)c3cccc(C)c3)c(=O)c3cc(F)c(N4CCOCC4)cc32)cc1	inactive: -8.98%
COc1cccc(Cc2nc3ccccc3nc2SCC(=O)Nc2cccc(C)c2)c1	inactive: -7.02%

Compound	activation
COc1ccc(CNC(=O)c2sc3nc4n(c(=O)c3c2C)CCCC4)cc1	inactive: -16.9%
O=C(Nc1cc(-c2ccccc2)sc1C(=O)O)c1cccc(F)c1	inactive: -1.56%
O=C(Cn1c(=O)n(Cc2nc(-c3ccccc3)no2)c(=O)c2cc3c(cc21)OCO3)Nc1ccccc1	inactive: -19.4%
CCC(C)n1c(=O)c2sccc2n2c(CCCC(=O)N3CCN(c4ccccc4)CC3)nnc12 (configuration not stated)	inactive: -6.58%
CCOc1ccc(-n2c(SCC(=O)Nc3cc(C)ccc3C)nc3c([nH]c4ccccc43)c2=O)cc1	inactive: -8.71%
CC(C)c1ccc(NC(=O)CSC2=Nc3ccccc3C3=NC(CCC(=O)NC4CCCCC4)C(=O)N23)cc1 (configuration not stated)	inactive: -9.09%
COc1ccc2c(c1)CCc1c(C(=O)Nc3cc(OC)c(Cl)cc3OC)noc1-2	inactive: -5.8%
COC(=O)c1cc(Nc2nc3ccccc3nc2NS(=O)(=O)c2ccc(C)cc2)ccc1Cl	inactive: -15.3%
O=C(Cc1ccccc1)Nc1sc2c(c1C(=O)Nc1ccccc1Cl)CCCCC2	inactive: -3.28%
COc1ccc2cc([C@H](C)C(=O)O)ccc2c1	inactive: -2.11%
Cc1ccc(-n2c(=O)c3cccnc3n2CC(=O)NCc2ccc(Cl)cc2)cc1	inactive: -20.9%
Cc1ccc2oc3c(c(=O)c2c1)C(c1ccc(O)cc1)N(CCCN(C)C)C3=O (configuration not stated)	inactive: 1.33%
COc1ccc(C(=O)Nc2cccc(C(=O)OCc3cc(=O)n4nc(C5CC5)sc4n3)c2)cc1	inactive: -14.4%
Cc1cc(F)ccc1NC(=O)C(c1ccccc1)N1Cc2ccccc2C1=O (configuration not stated)	inactive: -17.8%
COC(=O)c1ccc([C@@H]2Nc3c(OC)ccc(C)c3[C@@H]3C=CC[C@@H]32)cc1	inactive: -5.64%
Nc1c(C(=O)Nc2ccc(F)cc2)sc2nc(-c3cccs3)cc(C(F)(F)F)c12	inactive: -13.6%
Cc1cccc(Nc2ncnc3onc(-c4ccc(Cl)cc4)c23)c1C	inactive: -20.6%
O=C(CCS(=O)(=O)c1cc2c(cc1Cl)NC(=O)CO2)NCc1ccc(Cl)cc1	inactive: -5.65%
CCn1c2ccccc2c2cc(CN3CCN(Cc4ccc(Br)cc4)CC3)ccc21	inactive: -7.6%
CC1N=C2c3ccccc3N=C(SCC(=O)NCCc3ccc(Cl)cc3)N2C1=O (configuration not stated)	inactive: -5.75%
CCOc1ccc(CC(=O)Nc2cccc(-c3nc4cccnc4s3)c2C)cc1	inactive: -13.7%
Cc1ccccc1NC(=O)Cn1c(=O)n(CCCC(=O)NCc2ccc3c(c2)OCO3)c(=O)c2ccccc21	inactive: -10.1%
